A word on the viability, T/C: it is the result in the treated group divided by that in the control group, in per cent.

A number of entries come with more than one value. The other results are left out here. There may be further records. The records of an entry repeat one measurement (runs, samples, wells, individuals or studies). Marks such as (2×) stand for listed records that agree. Dates in brackets are months of testing.

We go through four compounds from PubChem BioAssay AID1918998 (Molecular Pharmacology Branch, DTP, NCI, 2023).

For the assay, the system named is 521955-158-R2-J5-PDC complex spheroid growth. The assay can be described thus: Anticancer human tumor 521955-158-R2-J5-PDC patient-derived pancreatic carcinoma cell line growth inhibition [AhR]. The note with it: stronger effect = lower value. The source says: Multicellular complex tumor spheroid response to aryl hydrocarbon receptor antagonists in combination with a variety of drugs and investigational agents in selected tumor cell lines
The current study was undertaken to assess response to aryl hydrocarbon receptor antagonists in combination with standard-of-care drugs and investigational agents in solid tumor complex spheroid models. Complex spheroids include a stromal component modeled by human endothelial cells (HUVEC) and fibroblasts modeled by human mesenchymal stem cells (MSCs). The concentration ranges selected for each drug and investigational agent were based upon clinically achievable concentrations if the clinical Cmax of the agent was known.
Compounds. The drugs and investigational agents: BAY 2416964 (NSC825713), GNF351 (NSC835774), CH-223191 (NSC835775), CPI-455 (NSC825282), aza-TdCyd (NSC777586), decitabine (NSC127716), belinostat (NSC758774), entinostat (NSC756642), pevonedistat (NSC761192), tazemetostat (NSC777109), talazoparib (NSC765396), olaparib (NSC753686), selinexor (NSC780203), nedisertib (M3814, NSC802822), bortezomib (NSC756655), venetoclax (NSC766270), doxorubicin (NSC123127), elimusertib (BAY189344, NSC800525), ceralasertib (AZD6738, NSC777638), TAK-243 (NSC785004), alisertib (NSC759677), etoposide (NSC141540), topotecan (NSC609699), eribulin (NSC707389), gemcitabine (NSC613327), carboplatin (NSC241240), cisplatin (NSC119875), and SN-38 (NSC673596) were obtained from the National Cancer Institute (NCI) Developmental Therapeutics Program Chemical Repository (32). The FDA-approved anticancer drug set is available from the Developmental Therapeutics Program at https://dtp.cancer.gov/organization/dscb/obtaining/available plates.htm. […] The stock solutions were prepared in dimethyl sulfoxide (DMSO, Sigma-Aldrich, St. Louis, MO, cat. D2650), except for the platinum compounds which were prepared in saline (Quality Biological, Gaithersburg, MD, cat. 114-055-101), at 800-fold the tested concentration and stored at -70 degrees C prior to their use. All drugs and investigational agents were tested over a range starting from a high concentration at or near the clinical Cmax and decreasing in half-log increments. If the clinical Cmax for an agent had not been determined, the highest concentration tested was 10 microM (Table 1).
Cell Culture. All cells were maintained in an incubator at 37 degrees C and 5% CO2 with 95% humidity. The PDC lines were cultured according to standard operating procedures established by the NCI PDMR (https://pdmr.cancer.gov). Briefly, all PDCs were thawed and cultured in Matrigel-coated flasks prepared with a working solution of 1X Ham's F-12 nutrient mix, without supplementation (Invitrogen, Waltham, MA, cat. 11765054), 100 U/mL penicillin-streptomycin (Invitrogen, cat. 15140122), and 2.5% Matrigel (Corning Inc., Corning, NY, cat. 354248) for the first three passages. All PDCs were cultured in complete DMEM/F-12 media containing advanced DMEM/F-12 (Invitrogen, cat. 12634028), 4.9% defined fetal bovine serum, heat inactivated (HyClone Laboratories Inc., Logan, UT, cat. SH30070.03HI), 389 ng/mL hydrocortisone (Sigma-Aldrich, cat. H4001), 9.7 ng/mL human EGF recombinant protein (Invitrogen, cat. PHG0313), 23.4 microg/mL adenine (Sigma-Aldrich, cat. A2786), 97.3 U/mL penicillin-streptomycin (Invitrogen, cat. 15140122), 1.9 mM L-glutamine (Invitrogen, cat. 25030081), and 9.7 microM Y-27632 dihydrochloride (Tocris Bioscience, Bristol, United Kingdom, cat. 1254). The PDCs were cultured in complete DMEM/F12 media without 10 microM Y-27632 dihydrochloride for at least two passages prior to the screen. The established cell lines NCI-H1341 and […] were cultured in DMEM/F-12, HEPES (Invitrogen, cat. 11330032), 5% defined fetal bovine serum (HyClone Laboratories Inc., cat. SH30070.03), ITS premix universal culture supplement [insulin (5 microg/mL), transferrin (5 microg/mL), and selenious acid (5 ng/mL)] […]
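Also: spheroids mix tumor cells with HUVEC endothelium and human MSC stroma; luminescence taken as viability surrogate after a week of drug exposure.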

With `CC(CO)NC(=O)c1cc(-c2ccc(Cl)cc2)nn(-c2cnn(C)c2)c1=O` (stereo not given), the viability, T/C is, setting by setting: (compound alone 0.1 µM) 120, 88.5, 102 (2×), 94.2, 92, 101, 80.6, 104, 66.3, 90.4, 107, 91, 105, 83.5, 89.8, 77.7, 109, 97.6, 97.2%; (compound alone 0.316 µM) 114, 102 (2×), 91.8, 100, 98.3, 96.2, 97.2 (2×), 103, 104, 101 (2×), 94.5, 105, 106, 91.7, 84, 97.3, 113, 81.5%; (compound alone 1 µM) 104, 101, 86.7, 97, 97.5, 75.8, 82.8, 99.6, 81.7, 90.6, 103, 98.2, 86.2, 111, 116, 90.7, 131, 128, 97.2, 102, 118%; (compound alone 3.16 µM) 138, 95.8, 97.1, 88.3, 98.2, 99.4, 102, 89.8, 81.2, 110, 100, 85.3, 117, 92.6, 91.7, 114, 96.8, 90.8, 129%.

For the compound `CC(C)CC(NC(=O)C(Cc1ccccc1)NC(=O)c1cnccn1)B(O)O` (stereo not given), the viability, T/C (compound alone 0.00949 µM) was 5.76% [2022-05] and 95.9%, 69.2% [2022-06].

For `Cc1cncc(-c2nc(NCCc3c[nH]c4ccccc34)c3ncn(C(C)C)c3n2)c1`, the viability, T/C was 84.7, 93.4, 93.8, 103, 107 (2×), 81.9, 85.7, 94.7, 91.2, 91.9, 93 (2×), 79.9, 94.2, 96.8, 95.7, 109, 104, 102% (compound alone 0.1 µM); 99.2, 93.5, 98.4, 94.1, 112, 106, 98.9, 116 (2×), 107, 124, 101 (2×), 104, 97.1, 98, 97.4, 122, 108, 113% (compound alone 0.316 µM); 110, 121, 118, 106 (3×), 104, 95.5, 113 (2×), 102 (2×), 105 (2×), 112 (2×), 129, 115, 101, 96.5% (compound alone 1 µM); 106, 131 (2×), 116 (2×), 134, 120, 104, 143 (2×), 109, 119, 123, 137, 133, 113, 126, 159, 95.9, 124% (compound alone 3.16 µM); 89.7, 115, 123, 116 (2×), 118 (2×), 108, 126, 113, 121, 111 (2×), 131, 85, 92.7, 99.2, 140, 147, 112% (compound alone 10 µM).

For the compound `Cc1ccccc1N=Nc1ccc(NC(=O)c2ccnn2C)c(C)c1`, the viability, T/C by setting is: (compound alone 0.1 µM) 94.7, 73.2, 96.5, 77.5, 109 (2×), 68.7, 76.8, 80.3, 85, 99.9, 92.3, 94.2, 85.9, 104, 107, 94.3, 78.1, 112%; (compound alone 0.316 µM) 85.8, 85.2, 79.8, 86.3, 85, 88.9, 108, 101 (2×), 94, 99.5, 103, 123, 97.6, 93, 88.3, 97.7, 85.6, 105% (2×); (compound alone 1 µM) 140, 105 (3×), 112 (2×), 92.1, 99.1, 110, 87.2, 103, 95.5, 118 (2×), 99, 93, 143, 115, 98.7, 114%; (compound alone 3.16 µM) 148, 105, 136, 108, 126, 122 (2×), 99.1, 109, 132, 115, 114, 124, 123, 130, 141, 128 (2×), 118, 102%; (compound alone 10 µM) 172, 122, 124, 140 (2×), 132 (2×), 142 (2×), 105, 138, 151, 161, 129, 153, 165, 121, 147, 100, 131, 111%.
